Assay results published in PubChem BioAssay AID1508623 (National Center for Advancing Translational Sciences (NCATS), 2021).
About 450 (0.94%) of roughly 48,000 compounds were called active. Not shown: some 19% with an inconclusive outcome. The call rests on the fitted dose curve; in most records, active means well fitted inhibition curve with a large enough effect; inconclusive means small, poorly fitted or top-dose-only effect; inactive means no such curve, though single readings can be large or run the other way. The list shows a part of the results.

experiment: Primary qHTS for Identification of Small Molecule Inhibitors of Huntingtin Promoter Activity; settings: HEK293 HTT promoter firefly luciferase reporter (activity 0% = vehicle and -100% = no light), 24 h; series mostly up to 57.5 µM; activity change, negative = inhibition: at the top concentration; further: nearly all actives have a fitted effect of over 50% in size
How it was run: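 HEK293 cells carrying firefly luciferase reporters were seeded at 2,500 per well in Opti-MEM and cultured for 24 h. They were then treated with compounds at up to 57.5 uM final for 24 h at 37 degrees C before Dual-Glo luminescence readout.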

Activity change, negative = inhibition, inactive:
COc1ccc(N2CCN(C(=O)CN(C)S(=O)(=O)c3cccs3)CC2)cc1 -10.5%, COc1ccc(Cn2ccnc2SCC(=O)Nc2cc(C(F)(F)F)ccc2Cl)cc1 -16.1%, CCOC(=O)c1ccccc1NC(=O)c1sc2ccccc2c1Cl -10.8% [at 11.5 µM], COc1ccc(-c2cn3nc(N4CCCC(C(=O)NCc5ccccc5C)C4)sc3n2)cc1 (stereo not drawn) -27.3%, CCN(CC)C(=O)Cn1c(=O)cc(C)c2c(C)nn(C)c21 -6.93%, Cc1cc(Cl)ccc1Nc1ncnc2onc(C)c12 -25.9%, Fc1ccccc1OCc1nc(-c2ccc(-n3cccc3)cc2)no1 14.8%, O=C(Nc1ccccc1Cl)C1CCN(c2nc3ccccc3[nH]2)CC1 2%, COc1cccc(NC(=O)CSCn2nnc3c(=O)[nH]c(Cc4ccc(F)cc4)nc32)c1 -0.967%, COC(=O)c1ccc2c(c1)N(CC(=O)Nc1cccc(C(F)(F)F)c1)C(=O)c1ccccc1S2 -21.2%, CC(C)c1ccccc1NC(=O)CN(c1ccccc1)S(=O)(=O)N(C)C -13.8%, O=C(Cn1ccn(-c2cccc(Cl)c2)c(=O)c1=O)c1ccc(F)cc1 -24.9%, O=C(NCCCN1CCN(c2ccc(F)cc2)CC1)c1sc2ncccc2c1-n1cccc1 -32%, CCOc1ccc(CNC(=O)c2[nH]c3ccccc3c2Sc2ccc(C)cc2)cc1 -4.05%, Cc1ccc(NC(=O)CCS(=O)(=O)c2ccc(Br)cc2)c(C)c1 -26.5%, CSc1ccc(C(=O)c2[nH]c(=O)[nH]c2C)cc1 7.72%, COc1ccc(OC)c(S(=O)(=O)N2Cc3ccccc3CC2C(=O)Nc2ccc(Cl)cc2)c1 (stereo not drawn) -28.3%, CCOc1ccc(-c2nn(-c3ccccc3)cc2C2NC(=O)NC(C)=C2C(=O)OC(C)C)cc1C (stereo not drawn) -20%, Cc1ccc(-n2nc(CO)c(C(=O)NCCCCc3ccccc3)n2)cc1 2.08%, Cc1cc(C)cc(NC(=O)CCS(=O)(=O)c2ccc3nc(C)sc3c2)c1 -11.6%, O=C1C(c2ccc(F)cc2)N(Cc2ccccc2Cl)C(=O)CN1C1CCCCC1 (stereo not drawn) -28.1%, COc1ccc(CNC(=O)c2cc3c(=O)n4cccc(C)c4nc3s2)cc1 -0.529%, CCOC(=O)c1[nH]c(C)c(CCC(=O)NC(C)c2ccccc2)c1C (stereo not drawn) 2.23%, O=C(Nc1cc2ccc(O)cc2oc1=O)c1ccc(F)cc1 39.3%, Cc1cccc(CNC(=O)Cc2ccc(NC(=O)N3CCCCc4ccccc43)cc2)c1 -25.6%, COc1ccc(CCNC(=O)CCCCn2c(=O)c3ccccc3n(Cc3ccc(Cl)cc3)c2=O)cc1OC -29.7%, COc1cccc(CNC(=O)c2oc3ccc4c(c3c2C)C(=O)CC(C)(C)O4)c1OC 9.94%, Cc1ccc(N(C)C(=O)Cn2cc(S(=O)(=O)N3CCCC3)c(S(=O)(=O)N3CCCC3)c2)cc1 -13.7% [at 11.5 µM], Cn1c(=O)c2c(n3ncnc13)NC(=O)CC2c1cccc(F)c1 (stereo not drawn) -14.6%, COc1ccc(NS(=O)(=O)c2ccc3c(c2)CC(C)N3C(C)=O)c(OC)c1 (stereo not drawn) -29.5%, Cc1ccc(-n2c(=O)c3c(cnn3C)n(CC(=O)Nc3c(C)cccc3C)c2=O)cc1 -14.6%, C=Cc1ccc(CSc2nnc(C)n3c2cc2occc23)cc1 -14.3%, Cc1ccc2c(CC(=O)N(Cc3ccc(Cl)cc3)Cc3ccco3)coc2c1 -32.7%, Cc1ccccc1Nc1cc(C(=O)NCCc2ccc(Cl)cc2)c2ccccc2n1 -8.62%, COc1cccc(C(=O)Nc2c(C(=O)c3ccc(F)cc3)oc3ccccc23)c1 -16.4%, COc1cc(C2c3c(oc4ccc(C)cc4c3=O)C(=O)N2Cc2ccccc2)ccc1O (stereo not drawn) -7.62%, COC(=O)Cc1c(C)c2ccc3c(c2oc1=O)CN(Cc1ccccc1OC)CO3 -6.44%, O=C(Nc1cccc(F)c1)c1cccc2c1C(=O)N(C1CCCCC1)C2 -19%, COc1ccccc1NC(=O)Cn1c(=O)n(-c2cccc(Cl)c2)c(=O)c2c1c1cc(C)ccc1n2C -16.2%, CN1CCc2nc3sc(C(=O)Nc4cccc(C#N)c4)c(N)c3cc2C1 0%, Cc1cc(C)cc(Nc2nnc(-n3nc(C)cc3C)c3ccccc23)c1 -17.3%, CCc1ccccc1NC(=O)CSc1ncc(S(=O)(=O)c2ccccc2)c(=O)[nH]1 -5.27%, Cc1cccc(OCC(=O)Nc2ccc(Cl)c(-c3nc4ccccc4[nH]3)c2)c1 -11.8%, O=C(CC1C(=O)N(c2ccccc2)C(=O)N1Cc1ccc2c(c1)OCO2)Nc1ccccc1 (stereo not drawn) -21.5%, O=C1CC(c2nnc(Cc3ccccc3Cl)o2)CN1c1ccccc1 (stereo not drawn) -15.4%, Cc1ccc(-c2cc3c(n2-c2ccccc2F)CC(C)(C)CC3=O)cc1 2.38%, CCOC(=O)c1ccc(CN(Cc2ccccc2C)S(=O)(=O)c2ccc(F)c(C(=O)Nc3cccc(OC)c3)c2)cc1 -22.6%, O=C(CN1C(=O)CSc2ccc(S(=O)(=O)N3CCCC3)cc21)NCc1ccc(Cl)cc1 -18.7%, COc1ccc(NC(=O)CN2C(=O)COc3ccc(S(=O)(=O)N4CCCCC4)cc32)cc1Cl -11%, COc1ccc(NC(=O)c2oc3ccccc3c2NC(=O)Cc2cccs2)cc1 -16.8%, Cc1ccc(NC(=O)c2sc3nc(-c4ccc(F)cc4)ccc3c2N)cc1F 0.431%, O=C(Cn1cc(C(=O)C2CC2)c2ccccc21)Nc1ccc(Br)cc1 -9.98%, COc1ccccc1N1CCN(c2ccc(-c3nc(-c4ccccc4)no3)cc2[N+](=O)[O-])CC1 -1.78%, Cc1ccc(C)c(Cn2c(=O)n(CCCCCC(=O)NCc3ccc4c(c3)OCO4)c(=O)c3sccc32)c1 -25.1%, CC(=O)c1ccc(NC(=O)CCCc2nc(-c3cccc(C)c3)no2)cc1 -9.98%, CC(C)Sc1ncc(Cl)c(C(=O)Nc2nnc(C(C)C)s2)n1 -3.92%, CN(C(=O)C(=O)Nc1ccc2nc3n(c(=O)c2c1)CCCCC3)c1cccc(C(F)(F)F)c1 -9.29%, CCc1ccc(CNC(=O)c2cc(-c3ccc(Br)s3)nc3ccccc23)cc1 -2.39%, COc1cccc(-c2ccc3c(N)c(C(=O)NCc4ccc(Cl)cc4)sc3n2)c1 -25.1%, Cc1cccc(N2CCN(C3(c4ccccc4)C(=O)c4ccccc4C3=O)CC2)c1C 5.46%, Cc1ccc(S(=O)(=O)N2CCOCC2)cc1C(=O)Nc1ccccc1C(=O)O -1.2%, O=S(=O)(Nc1ccc2nc(-c3cccc(Cl)c3)oc2c1)c1ccccc1 13.8%, Cc1ccc2onc(CC(=O)N(C)c3ccccc3)c2c1 -8.68%, COc1ccccc1CNC(=O)c1ccc2nc(-c3ccccc3)c(-c3ccccc3)nc2c1 -11.3%, CCOc1ccc(CNC(=O)c2ccc(NC(=O)N3CCCCc4ccccc43)cc2)cc1OC -6.37%, CCn1cc(C(=O)NCc2ccc(C)cc2)c(=O)c2cc(S(=O)(=O)N3CCCCCC3)ccc21 -6.04%, Cc1nn(C)c2c1c(C(F)(F)F)cc(=O)n2Cc1cccc(Br)c1 0%, CC(C)CNc1nc(Oc2ccc(OCC(N)=O)nn2)nc(N2CCOCC2)n1 -6.99%, C/C=C/C=N/NC(=O)c1ccncc1 6.72%, CCOc1ccc(-n2c(-c3ccccc3)c(C)n3c4c(=O)n(C)c(=O)n(C)c4nc23)cc1 13.9%, CCCNC(=O)C1CCN(c2ncnc3c2nc2n3CCCCC2)CC1 -4.47%, CCCC(=O)NCC(c1ccc2c(c1)OCO2)N1CCN(c2ccccc2)CC1 (stereo not drawn) -6.19%, CCCCCOc1ccc(/C=C/C(=O)Nc2sc(C(C)=O)c(C)c2C(=O)OCC)cc1OC 5.41%, CCc1ccc(-n2c(=O)c3sc4ccccc4c3n(Cc3cccc(F)c3)c2=O)cc1 -18.6%, Cc1oc(C)c2c(=O)cc(-c3ccc4c(c3)OCO4)cc(OC(=O)c3ccccc3Cl)c12 -16.8%, C=C1CCC2[C@](C)(CO)C(O)CC[C@]2(C)C1CC=C1C(=O)OCC1O (stereo partly drawn) 9.8% [at 116 µM], CC(=O)NO 5.8%, CCN(CC)C(=O)c1sc(NC(=O)C(C)Sc2nc(-c3ccccc3)cc(C(F)(F)F)n2)c(C(=O)OC)c1C (stereo not drawn) -21.2%, COc1ccc(C2=CC(c3ccccc3F)n3ncc(C(=O)Nc4ccc(C)cc4)c3N2)cc1 (stereo not drawn) -0.0715%, COC(=O)c1ccccc1NC(=O)CCC(=O)N1CCOc2ccccc21 -22.4%, COc1cc(Nc2ncc(F)c(Nc3ccc4c(n3)NC(=O)C(C)(C)O4)n2)cc(OC)c1OC -6.08%, COc1ccccc1Cn1ccn(Cc2c(F)cccc2Cl)c(=O)c1=O -70.7%, CN(C)c1oc(/C=C/c2ccc(F)cc2)nc1C#N 75.2%, CC(=O)c1ccc(NC(=O)Nc2nnc(N3CCCC(C)C3)s2)cc1 (stereo not drawn) -3.08%, CCN(c1ccccc1)c1nnc(NC(=O)Nc2cccc(Cl)c2C)s1 0.186%, Cc1c2cnn(CC(=O)NCc3ccc(F)cc3)c(=O)c2c(C)n1Cc1ccccc1F -3.68%, Cc1nc2c(C(=O)NCCc3ccccc3)cnn2c(C)c1Cc1c(F)cccc1Cl -13.2%, COc1ccc(Cl)cc1Nc1ncnc2c1c(-c1ccccc1)cn2-c1ccccc1 -16.8%, CCOCCCNC(=O)c1cc2c(-c3ccc(OC)c(OC)c3)nn(C)c2s1 -5.63%, COCCN1CCc2nc(SCC(=O)Nc3ccc(Br)cc3)[nH]c(=O)c2C1 -4.14%, Cc1noc(/C=C/N(C)C)c1S(=O)(=O)N1CCCC(C(=O)Nc2ccc(F)cc2F)C1 (stereo not drawn) -6.8%, NC(=O)C1(N2CCCCC2)CCN(C(=O)Nc2ccc(C(F)(F)F)cc2)CC1 -10%, Cc1ccc(NCc2ccccc2-c2nnc(-c3ccccc3Cl)o2)c(C)c1 -3.74%, CC(C)(Oc1ccc(Cl)cc1)C(=O)O -1.17%, CN1CCCN=C1COC(=O)C(O)(c1ccccc1)C1CCCCC1 (stereo not drawn) 4.38%, O=c1cc(-c2ccccc2)c2cc(Cl)c3c(c2o1)CN(Cc1ccccc1)CO3 -12.8%, Cc1ccc2c(c1)c1c(c(=O)n(-c3ccccc3C)c(=O)n1CC(=O)NCc1ccccc1)n2C -7.62%, COc1ccccc1NC(=O)Cn1c(=O)n(Cc2ccco2)c(=O)c2cccnc21 -15.8%
